In the supplement of paper PMC3334620:
In all, about 33,000 sequences were measured (“E-score (-0.5 to 0.5)”: median about -0.013, highest 2% from about 0.3 on). The list shows a part of the results.

molecular target: T1, Msn1 (UniProt P22148); assay: PBM E-score (8-mer binding enrichment) (E-score (-0.5 to 0.5)); higher = stronger / more preferred TF binding; most listed sequences are background and not binding sites; settings: protein concentration: 200 nM; construct: GST-full length
T1 sequence: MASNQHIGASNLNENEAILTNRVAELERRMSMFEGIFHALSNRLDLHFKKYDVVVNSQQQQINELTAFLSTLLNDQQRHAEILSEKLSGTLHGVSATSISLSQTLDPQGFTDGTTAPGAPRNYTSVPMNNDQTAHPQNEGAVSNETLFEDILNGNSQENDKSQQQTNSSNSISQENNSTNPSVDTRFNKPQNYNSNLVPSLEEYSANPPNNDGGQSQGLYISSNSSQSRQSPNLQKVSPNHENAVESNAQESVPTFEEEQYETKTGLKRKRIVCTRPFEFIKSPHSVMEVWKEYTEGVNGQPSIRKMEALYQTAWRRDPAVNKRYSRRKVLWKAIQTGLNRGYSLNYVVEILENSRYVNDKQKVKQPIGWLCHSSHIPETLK
Procedure: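 Universal 'all 10-mer' protein binding microarrays (Agilent AMADID 015681) probed with GST-tagged S. cerevisiae TFs (full-length or DBD) made by in vitro transcription/translation (PURExpress), about 100-200 nM. Bound TF was detected with fluorescent anti-GST. Each ungapped 8-mer (which stands for itself and its reverse complement) is scored by the PBM enrichment score (E-score), a modified Wilcoxon-Mann-Whitney statistic from -0.5 to +0.5, computed with the Universal PBM Analysis Suite. Scale: above 0.35 generally sequence-specific binding.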

Sequence	PBM E-score
ACAACGGG	0.161
AGAATCAC	-0.0955
CCACGTCG	-0.041
CCAGGCTA	-0.295
CGACTAGA	-0.117
ACTCACCG	-0.0883
CTCGTGCA	-0.109
CGGAATCC	-0.039
AATCCATA	0.0862
CGCGATAC	-0.0393
CGTAGGAC	0.132
CCTTTCTA	0.0109
GACACAAA	0.395
ACCAGGAC	0.329
ACAAGAAA	0.197
AGAATGAG	0.0238
AGGCGAGA	-0.196
CGTTGACC	-0.00754
CAGCTGGC	-0.125
CCAATGGA	-0.0809
GAAGCATC	-0.28
CTGGAACC	-0.181
AGTCAGAT	0.113
AACCAGCT	0.138
CTTAACGC	-0.0673

Sequence	PBM E-score
ACCCCAGG	-0.231
AGGCTATG	-0.204
GAGTTAAC	-0.0585
CCAGGCGC	-0.147
CGTGATTA	0.073
ACGACGAC	-0.107
CAGTGCGC	-0.153
ATGTGTAA	0.0748
GCTCGTCC	0.133
GAACATCA	-0.0434
GCCCTATA	-0.0935
ATCCGGCC	-0.0763
CTTGACAC	-0.143
ACGTGCGC	0.0162
TAAAAAGA	0.114
TTCCCAAA	0.0993
CAACGCCA	-0.171
CATGCTGA	-0.00885
CATACTGG	0.055
GTTCTGTA	0.0648
ATACGAGC	0.0618
AGAACATA	0.167
ACTTCAGG	0.00294
AAGGAACG	-0.0472
ATCATACG	0.112

Sequence	PBM E-score
AGCCGCCG	-0.0663
ATACTGAA	-0.0679
AACACCTG	0.0646
CTCACGAC	-0.0565
CCCAAAAG	0.0389
AAGGCTGG	-0.253
AGTGGAGA	-0.029
ATAGGGGG	-0.358
ATAGTGGC	-0.0472
TACGCGCA	0.0872
AATACTCA	0.175
ACGACAGT	-0.047
GTCCCAGA	0.0675
AGTCTGGC	-0.139
CGAACATC	0.13
CCTCAGAG	-0.291
CCCGTGCA	-0.3
AGGTGTGC	-0.223
ACATTATG	0.282
AGCCTTAG	-0.0844
GATTGAAA	0.149
CTAGTATC	0.0387
ACATGTTA	0.199
AACATACT	0.00863
CATAAGCA	-0.0443

Sequence	PBM E-score
TAACACCA	0.021
CGACGCTA	-0.0168
CTATATGC	0.0574
CCGATAAG	0.108
GATCTAGC	-0.225
AGCCGAGG	0.103
AATTTGAA	0.0911
TCTCGAGA	0.259
AGATCAAT	-0.0557
AGGTCTAT	-0.0519
GCTTATAA	-0.0204
ACCGCAGA	-0.183
GGTGAAAC	0.00076
AGTAAGAC	0.085
GTACGAGA	0.132
TCAGATCA	0.0578
ACATGACC	0.0733
CTTTTATC	0.0809
GAAACTCC	-0.249
ATTTCGAA	0.204
CTTGTCCC	0.47
CAGGCGAC	-0.0799
AATGCTAA	0.0423
AGCAAAGG	-0.0218
GGCGATTA	-0.0902

Sequence	PBM E-score
AGTGTGGG	-0.193
GGTTAAGA	0.0564
ACGCAGAG	0.0356
GCCGTCGC	-0.0331
CTATCTGA	-0.12
CGATTTCC	0.0472
CAGGTCAC	-0.313
TAATCTGA	-0.0016
ACGCTTTA	-0.013
CCCACCGA	-0.265
GGCAGATA	-0.149
ACGCTAAG	-0.0746
GGACAGGA	0.299
ATCACGAT	-0.118
GTAGTACA	0.167
GTGTGAAA	0.212
ATCGAAGG	-0.0113
GTCCCACA	0.319
AGTAACTC	-0.00301
AACTTGAG	-0.212
ATGTGCTA	-0.0878
CGACCATC	-0.232
CATCCACA	0.129
CGGTATTC	0.101
CCAGATAG	-0.057

Sequence	PBM E-score
AAAGTTAT	0.193
GGTATGAA	0.00327
AAGATTGC	0.0886
CTGCGTGA	-0.00745
GGGTTGCA	-0.0668
ATTATATC	-0.074
CATGCACC	-0.0246
CTCGAGTC	0.12
GAGCCCAA	-0.121
ATGGAGAC	0.172
ATCTCGTA	0.0247
GCTAGCTA	-0.149
CGAGGTGC	0.0666
AACGGAGT	0.0569
ACGTAAGC	-0.13
TACTAGAA	0.044
GGTTAGAA	-0.307
CAAGGGTC	-0.107
GGCTCTAA	0.033
AGCAAATA	0.0897
CAGCCATG	-0.121
CGTAACGC	0.00743
CCCGCTTA	-0.0594
GCAGCTCC	-0.283
AGGTCAAG	0.0391

Sequence	PBM E-score
CGAAATAC	0.116
GTTGCGTA	0.0763
AAGCTATA	-0.0816
AATCACGA	-0.0922
CAACAGTC	-0.0198
CGGTTTCC	0.138
CTCGTATC	0.0707
AGGTACAT	0.266
CCCTAGGA	-0.0892
ATGGTCCA	-0.0274
GACATCGC	0.273
ATAAGGTG	0.133
TCGGACAA	0.457
TTAGATAA	0.0312
CGTGCATA	0.136
GAATTATC	-0.0192
CCCCATCC	-0.2
CACAAAAC	0.0522
CTGTCTGA	0.0827
ATGTCCGC	0.44
TCTGTCAA	0.0509
TGAGCAAA	0.0396
